Test results from PMC12136788.
The list shows a part of the results.

T1: UNK ZnF1-6 (called full-length) (human, UniProt Q9C0B0 30-357)
T1 sequence: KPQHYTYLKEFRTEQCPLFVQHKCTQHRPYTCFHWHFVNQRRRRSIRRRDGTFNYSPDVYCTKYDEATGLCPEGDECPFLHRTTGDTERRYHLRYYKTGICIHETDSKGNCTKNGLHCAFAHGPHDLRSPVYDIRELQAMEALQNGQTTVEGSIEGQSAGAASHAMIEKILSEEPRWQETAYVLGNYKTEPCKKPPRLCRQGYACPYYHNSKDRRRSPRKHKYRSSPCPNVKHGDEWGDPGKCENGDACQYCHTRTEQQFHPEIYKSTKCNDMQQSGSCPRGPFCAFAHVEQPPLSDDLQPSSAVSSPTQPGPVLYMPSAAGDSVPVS

B1: chr10:95311796:95311897:-|3pUTR|ENSG00000095637|unk|FALSE|unique (ssRNA)
RNA: GGGAGUUCUACAGUCCGACGAUCCAGACAUAGAUUUUUCUGUUCAUUUAUUUUUCUUCAUUGCAGUGGAUUGAUUUGAUAAAUAGAUGUGUUGAAUUACUACAUUUGCUGUACAUAUUAUUUAAUAAACUUUAUUCAGAAUUGCAACAGAGGAUUGAGCAUCA
B2: chr18:722677:722778:-|3pUTR|ENSG00000176105|msi1|FALSE|unique (ssRNA)
RNA: GGGAGUUCUACAGUCCGACGAUCCCGCGCCCAGCCUACAUUCACUUCUAAAGUCUAUGUAAUGGUGGUCAUUUUUUCCCUUUUAGAAUACAUUAAAUGGUUGAUUUGGGGAGGAAAACUUAUUCUGAAUAUUAACGGUGGUGACAACAGAGGAUUGAGCAUCA
B3: chr2:32224452:32224765:-|three_prime_utr|ENSG00000091106|control|control|control (ssRNA)
RNA: GGGAGUUCUACAGUCCGACGAUCUCGUGUGAGCAGUGAUGGAUGGCUUGCCUUCAUGGGUGUAUUUGAGAAUCUUAAGCAAUUAGUGUUUUUUGACUUUAGUACUAAAGAAUUUCUACCUGAUCCAGCAUUAGUCAGAAAACUCAACAGAGGAUUGAGCAUCA
B4: chr12:88493871:88493972:-|3pUTR|ENSG00000049130|msi1|total|mutant (ssRNA)
RNA: GGGAGUUCUACAGUCCGACGAUCAAGUAUCUUGACCAUAAAAAGUCAUUGCUGUUCUUGUUUCUAAUGUAAACCGUGUCCAUCCGUAAAAGUGAAAUUCAGUCUUAAGCCGGGUGAAUUGGAUCACCAUUUACACAAGAGAUGCAACAGAGGAUUGAGCAUCA
B5: chr20:32237940:32238012:+|3pUTR|ENSG00000101346|msi1_unk|FALSE|overlapping (ssRNA)
RNA: GGGAGUUCUACAGUCCGACGAUCUUUCAAAGAUACAAAUAUUUACAUAGUUUUAAUCAUGUAAUAUAUACAAUUUAAUGUCCUAGUGUUUUACUUAAUAGUGUAUCAUGUUUUCCCUGUUGGUAUGUAGCCUGGAUAAAUGCUCAACAGAGGAUUGAGCAUCA
B6: ENSG00000136451:be:win_3951|3pUTR|ENSG00000136451|bound_else_gene|NA|bound_elsewhere_windowed (ssRNA)
RNA: GGGAGUUCUACAGUCCGACGAUCGUAUGCAUUCUUUAUUCACUUAAGAAGCUUGUCUGCAAUAAUAAAGCCACGUCAUGUCUUCUUUUGGGAGGGAGAGAGUCGAUGGCAGGAGGGGGUUUUGGGUGGGCCACUGAAAAGGGGCAACAGAGGAUUGAGCAUCA

What follows are binders tested against T1, UNK ZnF1-6 (called full-length) (assay: nsRBNS (natural sequence RNA bind-n-seq); RBNS binding buffer (assumed for nsRBNS): 25 mM Tris pH 7.5, 150 mM KCl, 3 mM MgCl2, 0.01% Triton X-100, 500 ug/ml BSA, 20 U/ml SUPERase-In, 4 C; UNK is unkempt and MSI1 is Musashi-1; names of the RNAs are library labels; protein concentration not given here; high values mean tight binding).

| Binder | binding signal |
| --- | --- |
| B1 | 2.42 enrichment R |
| B2 | 0.894 enrichment R |
| B3 | 1.98 enrichment R |
| B4 | 0.19 enrichment R |
| B5 | 4.06 enrichment R |
| B6 | 0.995 enrichment R |
